Structures can show the parent of a compound that is named as a salt. Some of the results follow. Single values are uncertain, as repeats are few or missing.
These compounds were tested on Escherichia coli W3110 (assay: planktonic growth (OD600) relative to untreated control; higher = more growth). Details: 10 µM; 20-24 h; 30 °C; TB.
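Further: stationary (unshaken) cultures in 96-well plates, started at OD600 0.05 from mid-exponential cells, with compounds supplied from DMSO stocks.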

Compound | planktonic growth [%]
c1ccc2c(CC3=NCCN3)cccc2c1 [Naphazoline hydrochloride] | 100
CCN(CC)CC(=O)Nc1c(C)cccc1C [Lidocaine hydrochloride] | 110
CCCCc1oc2ccc(NS(C)(=O)=O)cc2c1C(=O)c1ccc(OCCCN(CCCC)CCCC)cc1 [Dronedarone hydrochloride] | 103
CCC1(c2ccccc2)C(=O)NCNC1=O [Primidone] | 94
CC(=O)OC[C@H]1O[C@@H]([S-])[C@H](OC(C)=O)[C@@H](OC(C)=O)[C@@H]1OC(C)=O.CCP(CC)CC.[Au+] [Auranofin] | 62
CN(C)CCC(c1ccc(Br)cc1)c1ccccn1 (stereo not given) [Brompheniramine maleate] | 92
O=C1CC[C@@H](C(=O)N2CSC[C@H]2C(=O)O)N1 [Pidotimod] | 97
c1ccc(-c2ccc(C(c3ccccc3)n3ccnc3)cc2)cc1 (stereo not given) [Bifonazole] | 100
Oc1c(Cl)cc(Cl)c2cccnc12 [Chloroxine] | 9
CCOc1nc2cccc(C(=O)O)c2n1Cc1ccc(-c2ccccc2-c2nnn[nH]2)cc1 [Candesartan] | 99
C[C@@](Cc1ccc(O)c(O)c1)(NN)C(=O)O [Carbidopa] | 95
Nc1ncnc2c1ncn2[C@@H]1O[C@H](CO)[C@@H](O)[C@@H]1O [Vidarabine] | 104
CC(=O)N(CC(O)CO)c1c(I)c(C(=O)NCC(O)CO)c(I)c(C(=O)NCC(O)CO)c1I (stereo not given) [Iohexol] | 95
CN(CCCCCCCCCCN(C)C(=O)Oc1cccc([N+](C)(C)C)c1)C(=O)Oc1cccc([N+](C)(C)C)c1 [Demecarium bromide] | 94
COC(=O)Nc1nc2cc(Sc3ccccc3)ccc2[nH]1 [Fenbendazole] | 114
CN1CCN(CC(=O)N2c3ccccc3C(=O)Nc3cccnc32)CC1 [Pirenzepine dihydrochloride] | 100
Cn1c(=O)c2c(ncn2CC2OCCO2)n(C)c1=O [Doxofylline] | 98
Nc1nc2c(ncn2COC(CO)CO)c(=O)[nH]1 [Ganciclovir] | 99
CC=CC(=O)N(CC)c1ccccc1C [Crotamiton] | 106
CNCCc1ccccn1 [Betahistine mesylate] | 90
NCCCCCC(=O)O [Aminocaproic acid] | 105
CN(C)C(=N)NC(=N)N [Metformin hydrochloride] | 104
CC(=O)O[C@]1(C(C)=O)CC[C@H]2[C@@H]3C=C(Cl)C4=CC(=O)CC[C@]4(C)[C@H]3CC[C@@]21C [Chlormadinone acetate] | 94
CCN(CC)C(C)CN1c2ccccc2Sc2ccccc21 (stereo not given) [Ethopropazine hydrochloride] | 104
CCCNC(=O)NS(=O)(=O)c1ccc(Cl)cc1 [Chlorpropamide] | 98

Compound | planktonic growth [%]
Cc1cc(O)c(C(=O)N[C@@H](C(=O)N[C@@H]2C(=O)N3C(C(=O)O)=C(CSc4nnnn4C)CS[C@H]23)c2ccc(O)cc2)cn1 [Cefpiramide] | 18
CO[C@H]1/C=C/O[C@@]2(C)Oc3c(C)c(O)c4c(O)c(c5c(nc6cc(C)ccn65)c4c3C2=O)NC(=O)/C(C)=C\C=C\[C@H](C)[C@H](O)[C@@H](C)[C@@H](O)[C@@H](C)[C@H](OC(C)=O)[C@@H]1C [Rifaximin] | 56
O=C1[C@H]2CCCC[C@H]2C(=O)N1CCCCN1CCN(c2nsc3ccccc23)CC1 [Perospirone] | 99
Clc1cccc(Cl)c1NC1=NCCN1 [Clonidine hydrochloride] | 100
CCCOc1ccc2[nH]c(NC(=O)OC)nc2c1 [Oxibendazol] | 105
Cc1[nH]cnc1CN1CCc2c(c3ccccc3n2C)C1=O [Alosetron hydrochloride] | 95
O=C1NCC2(CCN(CCc3ccccc3)CC2)O1 [Fenspiride hydrochloride] | 89
Clc1ccc2c(c1)CCc1cccnc1C2=C1CCNCC1 [Desloratadine] | 100
CN(C)CCOC(c1ccccc1)c1ccccc1.Cn1c(=O)c2[nH]c(Cl)nc2n(C)c1=O [Dimenhydrinate] | 93
CN(CCCN1c2ccccc2CCc2ccccc21)CC(=O)c1ccc(Cl)cc1 [Lofepramine] | 98
CCN(CC)C(=O)c1ccc(O)c(OC)c1 [Ethamivan] | 95
O=C(c1ccc(F)cc1)C1CCN(CCn2c(=O)[nH]c3ccccc3c2=O)CC1 [Ketanserin tartrate hydrate] | 99
CC(C(O)c1ccc(O)cc1)N1CCC(Cc2ccccc2)CC1 (stereo not given) [Ifenprodil tartrate] | 106
COC(=O)N/N=C/c1c[n+]([O-])c2ccccc2[n+]1[O-] [Carbadox] | 75
CN(C(=O)CN(CCO)CC(=O)N(C)C(C)(C)Cc1ccccc1)C(C)(C)Cc1ccccc1 [Oxethazaine] | 100
Cc1cc(C)nc(NS(=O)(=O)c2ccc(N)cc2)n1 [Sulfamethazine sodium salt] | 64
CC1(C)O[C@@H]2C[C@H]3[C@@H]4C[C@H](F)C5=CC(=O)C=C[C@]5(C)[C@@]4(F)[C@@H](O)C[C@]3(C)[C@]2(C(=O)CO)O1 [Fluocinolone acetonide] | 98
COc1cc(NS(=O)(=O)c2ccc(N)cc2)ncn1 [Sulfamonomethoxine] | 64
CC(C)[C@H](N)C(=O)OCCOCn1cnc2c(=O)nc(N)[nH]c21 [Valacyclovir hydrochloride] | 97
CN1CCN2c3ncccc3Cc3ccccc3C2C1 (stereo not given) [Mirtazapine] | 88
CCCOc1ccccc1-c1nc2[nH]nnc2c(=O)[nH]1 [Zaprinast] | 89
CCCCCCNC(=O)n1cc(F)c(=O)[nH]c1=O [Carmofur] | 80
CC#C[C@]1(O)CC[C@H]2[C@@H]3CCC4=CC(=O)CCC4=C3[C@@H](c3ccc(N(C)C)cc3)C[C@@]21C [Mifepristone] | 94
Nc1nc(=O)n([C@@H]2CS[C@H](CO)O2)cc1F [(-)-Emtricitabine] | 94
COc1ccc(Cl)cc1C(=O)NCCc1ccc(S(=O)(=O)NC(=O)NC2CCCCC2)cc1 [Glibenclamide] | 101
